The campaign covered roughly 4,800 compounds. About 410 (8.5%) showed an effect of 50% or more. The list shows a part of the results.
What follows are molecules tested on Plasmodium falciparum (assay: Confirmatory screen in NF54 pLDH assay, in single point, at 2uM, 72h). Details: timepoint 72 hour.
Type: functional, Erythrocyte

Row | SMILES | % Inhibition
1 | C[C@H]1NC(=O)N(CCc2nc(C(F)(F)F)cs2)C1=O | -12%
2 | COc1ccc(Oc2c(CN(CC3CC3)C(=O)c3ccccc3)c(-c3ccccc3)nn2C)cc1 | 1%
3 | O=C1NC(=O)C2(CCN(C(=O)c3cc(-c4ccco4)[nH]n3)CC2)N1 | -10%
4 | O=c1[nH]c(=O)n(Cc2cc(Cl)cc3c2OCOC3)cc1Cl | 12%
5 | CC1CN(Cc2ccccc2)CC(C)C1NC(=O)c1ccncc1F (stereo unspecified) | 7%
6 | NC(=NCc1cccc2cccnc12)N1CCN(c2nccs2)CC1 | 49%
7 | COc1ccc2c(c1)[n+](CC(=O)c1ccc(-c3ccc(Br)cc3)cc1)c(CO)n2C | 54%
8 | c1ccc(-c2nc(C[n+]3ccc4c(c3)CCCC4)cs2)cc1 | 56%
9 | CC(C)(C)C(=O)N1CCC(O)(CS(=O)(=O)Cc2ccccc2)CC1 | 7%
10 | Cc1ccc(-c2cc(O)cc(CC[C@H]3CCCCN3)c2)c(C)n1 | 66%
11 | O=S(=O)(N[C@H](c1nccs1)C1CC1)c1c(F)cccc1Cl | 10%
12 | C[C@@H]1CN(CCN(C)C(=O)Nc2nc(C3CC3)cs2)C[C@H](C)O1 | 9%
13 | NC(=O)C(=O)Nc1ccccc1C(F)(F)F | -11%
14 | O=C(Cn1cccc1-c1nc(-c2ccc(F)c(Br)c2)no1)N1CCc2ccccc2C1 | 14%
15 | O=C([C@@H]1CNc2ccccc2O1)N1CCOCC1 | -1%
16 | Cc1cc(CN(C)Cc2nccn2C)ccc1N1CCCCC1 | 1%
17 | CCN1CCC[C@@H]1CNCc1ccc2c(c1)OCCO2 | 1%
18 | O=C(N[C@H]1CCCc2occc21)c1ccco1 | 7%
19 | O=C(NCc1ccc(F)cc1F)[C@H]1CCCN(c2cn[nH]c(=O)c2)C1 | -8%
20 | Cc1c(C(=O)c2ccc(Cl)c(Cl)c2)sc2nc3cc(F)c(F)cc3n12 | -7%
21 | CCOc1ccc(C(N)=O)cc1Br | 5%
22 | COc1cccc(OS(=O)(=O)Cc2ccon2)c1 | 9%

Row | SMILES | % Inhibition
23 | Cn1cnn(CC(=O)N2CCc3sccc3C2)c1=O | 12%
24 | Cc1csc(CNC(=O)C(=O)Nc2ccc3c(c2)C(=O)N(C)C3=O)n1 | 8%
25 | COc1ccc(OC)c([C@H](c2cc3c(cc2O)OCO3)N2CCCC2)c1 | 9%
26 | Cn1ccc2cccc(NC(=O)N3CC(C)(CO)C3)c21 | 9%
27 | Cc1ccc(CNC(=O)C[C@H]2CCS(=O)(=O)C2)cc1 | -8%
28 | CCCCc1cc(NC(=O)c2cnc(C)cn2)on1 | 7%
29 | CCOc1cc(=O)c(C(=O)N2CCCCC2)nn1-c1ccc(OC)cc1 | -13%
30 | COc1cc(N2CCn3c(nc4cc(Cl)ccc43)C2)ccc1NC(=O)c1ccccc1OC | -10%
31 | N#Cc1ccc(N2CCN3C(=O)NCC3C2)nc1N1CCN2C(=O)NCC2C1 (stereo unspecified) | -19%
32 | O=C(CCn1ncc2c(Cl)cccc21)NCC1CCCC1 | -19%
33 | O=S(=O)(Cc1ccno1)NCCc1ccccc1OC(F)F | 11%
34 | CN(C)c1ccc(C2OCC3(CCC4(COC(c5ccc(N(C)C)cc5)OC4)O3)CO2)cc1 (stereo unspecified) | -5%
35 | CC1CCC2(CC1)N=C(c1ccc(Cl)c(Cl)c1)C(=O)N2 (stereo unspecified) | 11%
36 | O=C(Nc1ccccc1Cl)N1CCC(N2CCc3sccc3C2)CC1 | 43%
37 | COC(=O)c1ccc(Nc2nc(C)c3nc(C)n(-c4ccc(C(=O)OC)cc4)c3n2)cc1 | 3%
38 | O=C(c1cccc(COc2ccc(Br)cc2)c1)N1CCN(Cc2ccccc2)CC1 | -14%
39 | Cn1ncc2c(N3CC(=O)N(C4CC4)C3)ncnc21 | -15%
40 | CC1CN(C(=O)Cn2nnc3ccccc3c2=O)CC1N(C)C (stereo unspecified) | -6%
41 | COc1cccc2c1N(CC(=O)NCC(F)(F)F)CC[C@@H]2C | 7%
42 | O=C(C1CCCC2CCCCC21)N1CCN(c2ncccn2)CC1 (stereo unspecified) | 3%
43 | Cc1ccc(CNCCC2=CCCCC2)cc1 | 7%
44 | C[C@H](NCc1cc(C(N)=O)cs1)c1cccc(Cl)c1 | 11%

Row | SMILES | % Inhibition
45 | CCOc1ncc(Br)cc1C(=O)O | -19%
46 | Cn1c(CNC(=O)NCc2cc(Cl)c(Cl)n2C)cc(Cl)c1Cl | 10%
47 | Cc1ccc(S(=O)(=O)Cc2nc(-c3ccc(C(=O)Nc4ccc(C)cc4Cl)cc3)oc2C)cc1 | 14%
48 | O=C(O)Cc1sc(-c2ccc(Cl)cc2)nc1-c1ccc(Oc2ccccc2)cc1 | 7%
49 | COc1nc(N2[C@@H]3CC[C@H]2C[C@@H](OC)C3)ncc1F | 52%
50 | Cc1cncc(C=Cc2c(Cl)cccc2Cl)n1 | -9%
51 | Cc1nsc2ncc(C(=O)N3CCC(C)CC3)c(N3CCC(C(=O)Nc4cc(F)ccc4F)CC3)c12 | 44%
52 | c1cc(CN2CCN(C3CCCCCC3)CC2)ccn1 | -17%
53 | Cc1nsc(N2CCCC(C(C)NC(=O)OC(C)(C)C)C2)n1 (stereo unspecified) | -1%
54 | CCCN1CCN(S(=O)(=O)c2cccc3nonc23)CC1 | 11%
55 | CCC(=O)NCCNC(=O)c1ccco1 | 8%
56 | O=C(NC1CCN(Cc2ccccc2)CC1)c1cncc(O)c1 | -4%
57 | Cc1cccc(NS(=O)(=O)c2ccc3nncn3c2)c1 | -13%
58 | Cc1nn(C)c(NC(=O)c2ccc(Cl)cc2)c1C1=CCCCC1 | 9%
59 | Cc1c(C(=O)N2CC[C@H](CC(C)(C)C)C2(C)C)nnn1-c1cnn(C)c1 | -9%
60 | CCN1CCN(c2nc3ncn(CC(=O)NCCc4ccc(Cl)cc4)c(=O)c3s2)CC1 | 19%
61 | CC(C)c1ccc(-c2nc(CNc3cc4c(cc3Cl)NC(=O)CO4)cs2)cc1 | 1%
62 | CCC(CC)N1CC(C(=O)NC2COc3ccc(C)cc32)CC1=O (stereo unspecified) | -21%
63 | CN(C(=O)c1n[nH]c2c1CCC2)[C@H]1CCCc2c1cnn2C | -4%
64 | CN1CCOC(C(=O)NC(c2c(F)cccc2F)C(F)(F)F)C1 (stereo unspecified) | 7%
65 | COc1ccc(NC(=O)[C@@H](c2cc(OC)c(OC)c(OC)c2)N(Cc2ccccc2)C(=O)Cn2nnc3ccccc32)cc1 | -15%
66 | CCOC(=O)C(F)(F)[C@@H](NCC(=O)OC)C1CC1 | -5%

Row | SMILES | % Inhibition
67 | COc1ccc(-c2noc(Cn3c(=O)c4ccccc4n(CC(=O)Nc4cc(Cl)ccc4C)c3=O)n2)cc1 | 5%
68 | Cc1cc(C)n(-c2nc(Nc3ccc(Cl)cc3)nc(Nc3ccc(Cl)cc3)n2)n1 | 87%
69 | COc1ccc(C(=O)N2CC(C(=O)O)CCC2c2ccccc2)cc1 (stereo unspecified) | 13%
70 | CC(C(=O)Nc1cc(F)ccc1F)N1CCCC(c2nncn2C(C)C)C1 (stereo unspecified) | 2%
71 | O=C(O)CC1(NC(=O)c2cc(Oc3ccccc3)ccn2)CCC1 | -1%
72 | Cn1c(=O)n(C)c2cc3c(cc21)NC(=O)CS3(=O)=O | 5%
73 | Cc1nn(C)c(N)c1C(=O)N(C1CCC1)C1CCC1 | -16%
74 | COc1ccc(CN2CC[C@@H]3C(=O)NCCCCCCN(Cc4ccncc4)[C@@H]3C2)cc1Cn1ccnc1 | 37%
75 | O=C(COC(F)F)N1CCc2ccncc21 | -8%
76 | O=C(Nc1cccc2[nH]ncc12)c1ccco1 | 8%
77 | Cn1n[n+](CC(=O)Nc2ccccc2Cl)c2ccccc21 | 3%
78 | O=C(OCc1cncs1)c1ccccc1 | 10%
79 | O=C(NCC(=O)N1CCC[C@H]1c1ccc2c(c1)OCCCO2)c1ccc(Br)cc1 | -7%
80 | CCn1ccc([C@H](C)NC(=O)c2cc(-c3ccc(OC)cc3)nc3c2c(C)nn3C)n1 | 12%
81 | COc1ncnc(OC)c1CNc1cnn(C)c1 | 6%
82 | Cc1cccc(CN2C[C@@H](c3noc(-c4ccccn4)n3)CC2=O)c1 | 6%
83 | C[C@H](Nc1ccc(N2CCOCC2)nc1)c1cccc(CO)c1 | 11%
84 | O=C1NC(=O)[C@@H]2CN(S(=O)(=O)c3cc(F)cc(Cl)c3)C[C@H]12 | -15%
85 | O=C(NCCCc1ccccc1)c1ccc(CN2C(=O)CCn3nccc32)cc1 | 25%
86 | Cc1cc(C)cc(NC(=O)CCn2c(=O)cc(C(F)(F)F)c3cn(C(C)C)nc32)c1 | -13%
87 | Cc1cc(CS(=O)(=O)N2CCC[C@H]2c2noc(C)n2)no1 | 9%
88 | CCC[C@@]1(C)C(=O)NCCN1Cc1nnc(-c2ccc(Cl)cc2)n1C | -14%

Row | SMILES | % Inhibition
89 | O=C(CC(F)(F)F)NCc1ccccn1 | -21%
90 | Cc1ccccc1Nc1nnc(-c2ccccc2)c(-c2ccccc2)n1 | 5%
91 | CC1CCC2(C)c3[nH]c4ccccc4c3CCCN2C1=O (stereo unspecified) | -11%
92 | COc1nscc1CN(C)C(=O)c1ccc2c(c1)C(C)(C)CO2 | -12%
93 | Cc1cnc(C)c(N2CCCN(c3cncc(F)c3)CC2)n1 | 2%
94 | C[C@@]1(C(N)=O)CCCCN1Cc1cncs1 | 3%
95 | Cc1cc(NC(=O)CNC2C(C)CCN(C(=O)OC(C)(C)C)C2C)n(C(C)(C)C)n1 (stereo unspecified) | -2%
96 | C[C@@H](C(=O)Nc1nc(-c2ccccn2)cs1)n1nc2c(cc1=O)CCC2 | 17%
97 | CC(C)[C@H](Nc1ccc2nccnc2n1)c1nnc2n1CCC2 | 3%
98 | Cc1c(NC(=O)[C@H]2CCc3nnc(C4CCOCC4)n3CC2)cccc1C(F)(F)F | -13%
99 | CC1=CN(O)[C@H](c2ccc(O)cc2)N=N1 | -19%
100 | Cc1noc([C@@H](C)NC(=O)CC(C)C)c1C(=O)O | 7%
101 | Cc1cn2c(S(=O)(=O)NCc3ccco3)c(C(C)C)nc2s1 | -6%
102 | Cc1nnc2sc(Nc3ccccc3)nn12 | -1%
103 | Cc1cccc(C(=O)Oc2ccc(-n3ccnc3)cc2)c1 | 5%
104 | O=c1cc2n(c(=O)[nH]1)CC(c1ccccc1)=NN2 | 12%
105 | C[C@H]1CCC[C@@H](NCCc2ccccc2)CCC/C=C/c2cc(O)cc(O)c2C(=O)O1 | 72%
106 | CCc1nc(NC(=O)C(=O)Nc2cc(C)on2)sc1C | 6%

Source: ChEMBL document CHEMBL4888484, “Replenishing the malaria drug discovery pipeline: Screening and hit evaluation of the MMV Hit Generation Library 1 (HGL1) against asexual blood stage Plasmodium falciparum ,using a nano luciferase reporter read-out” (2022)
